Laboratory results as given in publication PMC4336329 (PLoS ONE, 2015).
Among all 310,000 compounds or so, about 2,200 (0.71%) showed an effect of 50% or more. The effect is printed as a negative number. The list shows a part of the results.

These compounds were tested against human ether-à-go-go-related gene (hERG) potassium channel (human, UniProt Q12809) (assay: primary screen, population patch clamp on CHO cells stably expressing hERG).
human ether-à-go-go-related gene (hERG) potassium channel, sequence (Q12809 whole entry, looked up): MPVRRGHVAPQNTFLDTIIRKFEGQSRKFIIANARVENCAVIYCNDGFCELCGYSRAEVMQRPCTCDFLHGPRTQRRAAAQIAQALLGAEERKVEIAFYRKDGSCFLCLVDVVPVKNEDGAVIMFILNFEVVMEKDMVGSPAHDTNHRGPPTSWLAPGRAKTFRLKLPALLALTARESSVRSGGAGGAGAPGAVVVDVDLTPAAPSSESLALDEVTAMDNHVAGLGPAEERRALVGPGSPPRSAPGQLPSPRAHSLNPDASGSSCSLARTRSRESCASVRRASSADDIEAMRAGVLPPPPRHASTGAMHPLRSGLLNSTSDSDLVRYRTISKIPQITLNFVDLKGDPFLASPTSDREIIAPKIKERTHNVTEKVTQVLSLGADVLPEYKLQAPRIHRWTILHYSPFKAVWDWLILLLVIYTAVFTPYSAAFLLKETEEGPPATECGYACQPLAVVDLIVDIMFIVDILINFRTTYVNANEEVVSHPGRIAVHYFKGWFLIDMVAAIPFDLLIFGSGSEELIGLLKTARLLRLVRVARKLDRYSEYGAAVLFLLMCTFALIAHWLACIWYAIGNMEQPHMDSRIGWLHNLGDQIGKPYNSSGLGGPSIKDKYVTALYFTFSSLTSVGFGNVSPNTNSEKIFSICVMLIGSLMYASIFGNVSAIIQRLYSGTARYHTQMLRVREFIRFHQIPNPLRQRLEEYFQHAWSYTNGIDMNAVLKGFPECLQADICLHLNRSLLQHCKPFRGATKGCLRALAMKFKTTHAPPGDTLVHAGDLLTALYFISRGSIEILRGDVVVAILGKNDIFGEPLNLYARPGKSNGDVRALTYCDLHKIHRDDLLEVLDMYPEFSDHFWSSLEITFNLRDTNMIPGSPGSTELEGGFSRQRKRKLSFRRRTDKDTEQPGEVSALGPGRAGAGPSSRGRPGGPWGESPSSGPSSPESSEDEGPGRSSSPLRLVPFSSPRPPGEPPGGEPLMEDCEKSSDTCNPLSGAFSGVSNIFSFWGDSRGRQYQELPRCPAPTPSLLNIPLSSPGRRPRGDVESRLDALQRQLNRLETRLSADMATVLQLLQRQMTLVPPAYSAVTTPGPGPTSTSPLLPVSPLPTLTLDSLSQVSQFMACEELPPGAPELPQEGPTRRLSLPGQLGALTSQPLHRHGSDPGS

Row | Compound | hERG current change (%, negative = inhibition) at 1uM [%]
1 | CCOc1ccc2c(c1)c1nc3ccccc3nc1n2C | 12.2
2 | CCCCN(CC)Cc1c(C)[nH]c2ccccc2c1=O | -3.42
3 | NNC(=O)COc1ncn(-c2ccccc2)n1 | 16.2
4 | O=C(C1=NN[C@@H]2C(=O)N(c3cccc(C(F)(F)F)c3)C(=O)[C@H]12)c1ccc2ccccc2n1 | 0.397
5 | COc1ccc(CCCc2nnc(SCC(=O)Nc3cccc(C)c3)o2)cc1 | 3.89
6 | N#CC1=C(N)N(c2ccc(Cl)c(Cl)c2)C(=O)C1 | 11.3
7 | O=c1c2c3c(sc2nc2sc(C4CC4)nn12)CCCC3 | -9.33
8 | CC(C)Cn1c(SCC(=O)NC(=O)NC2CCCC2)nc2ccccc21 | 2.14
9 | CCN(CC(=O)NCc1cccs1)c1nnnn1-c1ccccc1 | -4.58
10 | CCCCCCn1c(=O)c(C(=O)Nc2nnc(C)s2)c(O)c2ccccc21 | 12
11 | CSc1ccc(S(=O)(=O)N2CCC(C(=O)Nc3ccccc3C(F)(F)F)CC2)cc1 | 11.7
12 | O=C(NCc1ccc2c(c1)OCO2)c1cc(-c2ccccn2)nc2ccccc12 | 7.16
13 | CCN(CC)CCn1c(=S)[nH]c2cc(C(=O)NCc3ccc(C)cc3)ccc2c1=O | 4.77
14 | Cn1c(SCC(=O)N2CCOCC2)nnc1-c1ccccc1 | 2.77
15 | CC(=O)c1cccc(NC(=O)N2CC(C)OC(C)C2)c1 (stereo not drawn) | 13.1
16 | Cn1cnc([N+](=O)[O-])c1N=C(N)N | 11.5
17 | O=C(CSCc1c(F)cccc1F)Nc1ccccc1 | 15
18 | CCOc1ccc(-n2nnnc2-c2nc3ccccc3s2)cc1 | 7.22
19 | O=C(O)CN1C(=O)CN=C(c2ccccn2)c2cc(Cl)ccc21 | 4.75
20 | O=c1nc(-c2ccccc2)cc(C(F)(F)F)[nH]1 | 21.3
21 | Cc1csc2nc(O)c(C(=O)NCC3CCCO3)c(=O)n12 (stereo not drawn) | 14.3
22 | C=CCC(CC=C)(NC(=O)c1ccccc1)c1ccccc1 | 9.7
23 | COc1ccc(CCNC(=O)Cn2nc([N+](=O)[O-])c(Br)c2C)cc1OC | 13.1

Row | Compound | hERG current change (%, negative = inhibition) at 1uM [%]
24 | Cc1ccc(CC(=O)NCc2ccc(F)cc2)cc1 | 13.3
25 | CCCc1nnc(SCC(=O)Nc2cccc(Cl)c2Cl)o1 | 11.4
26 | CCN(CC(=O)NCc1ccc(F)cc1)C(=O)C1CCN(C(=O)Nc2ccccc2)CC1 | -0.883
27 | CNC(=O)Nc1cc(C(C)(C)C)no1 | 6.89
28 | COc1cc(OC)cc(C(=O)NNC(=O)C(=O)Nc2cc(OC)c(Cl)cc2OC)c1 | 21.9
29 | Cn1c(=NC(=O)CSCC(=O)N2CCCC2)sc2ccccc21 | 6.01
30 | Cc1ccc(C(=O)/C=C2\NCC(C)NC2=O)cc1 (stereo not drawn) | 12.9
31 | CN(Cc1nc2ccccc2n1C)C(=O)c1ccco1 | 16.2
32 | CCOC(=O)C1CCCN(C(=O)CSCc2ccccc2)C1 (stereo not drawn) | 12.5
33 | CC1c2cc3c(cc2CCN1CC(=O)Nc1ccc(S(=O)(=O)N2CCCC2)cc1)OCCCO3 (stereo not drawn) | 5.47
34 | CNCCCOc1ccc2c(c1)CCC2.O=C(O)C(=O)O | 8.46
35 | Cc1ccc(C2(C)NC(=O)N(CC(=O)Nc3ccc(-c4nc5ccc(C)cc5s4)cc3)C2=O)cc1 (stereo not drawn) | 2.26
36 | O=C(Nc1ccc2c(c1)OCCO2)c1coc2ccccc2c1=O | 11.2
37 | Cc1ccc2nc3c(cc2c1)c(NC(=O)c1cccnc1)nn3C | 6.86
38 | CC(=O)N1CCc2cc(C(=O)CN3CCN(c4ccccn4)CC3)ccc21 | -3.17
39 | CCNCC(=O)Nc1ccc(N2CCOCC2)cc1 | 13.2
40 | Cc1nnc(NC(=O)c2sc3ccccc3c2Cl)s1 | 9.06
41 | CC(C)(C)OC(=O)N1CCC[C@H]1C(=O)O | 5
42 | CCOC(=O)c1[nH]c2cc(OC)c(OC)cc2c1NC(=O)c1ccc2c(c1)OCO2 | 6.16
43 | COC(=O)c1c(C)nn(-c2ccccc2)c1N | 5.04
44 | COC(=O)C1(O)CC(C(C)C)=NN1C(=O)c1ccccc1 (stereo not drawn) | 17.6
45 | COc1ccc(-c2nc3ccccc3c(=O)n2CCOc2cc(C)ccc2C)cc1 | 10.1
46 | Cc1ccc(CNC(=O)c2ccc3c(=O)c(O)c(-c4ccc(C)cc4)[nH]c3c2)cc1 | 19.6

Row | Compound | hERG current change (%, negative = inhibition) at 1uM [%]
47 | Cc1ccc(S(=O)(=O)N2CCC(C(=O)Nc3nnc(-c4ccc(F)cc4)s3)CC2)cc1 | -2.31
48 | Cc1ccc(Sc2ncccc2C(=O)O)cc1C | 15.6
49 | CCOc1ccc(S(=O)(=O)N2CCN(C(=O)CN3C(=O)NC4(CCCC4)C3=O)CC2)cc1 | 3.17
50 | CCN1CCCC1CNC(=O)c1cc2c(C)nc3ccccc3c2o1 (stereo not drawn) | -0.901
51 | O=C(O)C(Cc1cnc[nH]1)NS(=O)(=O)c1ccc(Br)cc1 (stereo not drawn) | 10.8
52 | O=C(CSc1ccccc1)Nc1cccc(NC(=O)c2ccco2)c1 | 9.68
53 | COc1ccc(Cl)cc1C(=O)Nc1cc(=O)n(C)c(=O)n1C | 11.6
54 | O=C(O)C1C2C=CC(C2)C1C(=O)NCCCc1ccccc1 (stereo not drawn) | 8.67
55 | Cc1ccc(S(=O)(=O)c2nnn3c2nc(N2CCOCC2)c2ccccc23)cc1 | 4.78
56 | COc1ccc(NC(=O)c2cc(-c3cc(Cl)ccc3O)n[nH]2)c(OC)c1 | 13
57 | Cc1ccccc1-c1ccc(C(=O)Nc2cccc(F)c2)o1 | -9.03
58 | Cc1cc(CSc2ccccc2)ccc1NC(=O)c1ccc(C)c([N+](=O)[O-])c1 | 7.16
59 | c1cnc2ccc(C(c3nnnn3C3CCCC3)N3CCN4CCCC4C3)cc2c1 (stereo not drawn) | -19.5
60 | COc1ccc(-c2cn(CCCOCc3ccccc3)nn2)cc1 | -11.6
61 | CCOC(=O)C1=C(COC(=O)CNC(=O)c2ccc(C)cc2)NC(=O)NC1C (stereo not drawn) | 14.1
62 | COc1cccc(NC(=O)CN(C)C(=O)c2c(-c3c(F)cccc3Cl)noc2C)c1 | 1.55
63 | CCCCc1cc(=O)oc2cc(OCC(=O)NCc3ccccn3)c(Cl)cc12 | 15.6
64 | CC(NC(=O)c1ccc(N2CCCC2)c([N+](=O)[O-])c1)c1ccc(S(N)(=O)=O)cc1 (stereo not drawn) | 12.3
65 | O=C(Nc1cnn(Cc2ccc(F)cc2)c1)c1cc2nc(-c3ccco3)cc(C(F)(F)F)n2n1 | 13.9
66 | CC(=O)Nc1ccccc1OCC(=O)NCC(F)(F)F | 19.3
67 | Cc1cccc(NC(=O)Cn2nnc(C(=O)Nc3ccc(F)c(Cl)c3)c2N)c1 | 13.6
68 | CCC(CC)C(=O)Nc1cc(C(=O)OC)ccc1C(=O)OC | -1.71
69 | CC(C)Oc1ccc(C(=O)Nc2nnc(SCC(=O)N3CCOCC3)s2)cc1 | 12.5

Row | Compound | hERG current change (%, negative = inhibition) at 1uM [%]
70 | CCCCN(CCCC)Cc1ccc(C(=O)NNC(=O)Nc2ccc(F)cc2)o1 | -8
71 | Cc1cc(C(=O)COc2ccc(F)cc2Br)c(C)n1C | 8.9
72 | CCCCOC(=O)Nc1ccc(N(C)C)cc1 | 7.27
73 | O=C(NCC1CCCO1)/C(=C\c1ccccc1)NC(=O)c1ccccc1 (stereo not drawn) | 9.36
74 | Cc1ccc(S(=O)(=O)NNC(=O)Nc2ccc(C)c(C)c2)c(C)c1 | -1.3
75 | CS(=O)(=O)N(CC(=O)NCCSCc1ccccc1)c1ccccc1F | 12.2
76 | Nc1nc(NC(=O)c2ccc(F)cc2)ns1 | 3.43
77 | COc1ccc(N2CCN(CCCNC(=O)Cn3c(=O)c4cccn4c4ccccc43)CC2)cc1 | -25.1
78 | O=C(COc1ccc2ccccc2c1)NC1CC1 | 5.85
79 | O=C(O)c1ccccc1-c1ccccc1C(=O)Nc1ccccc1-c1ccccc1 | 15.8
80 | CCOC(=O)c1cccc2c1-c1ccccc1/C2=N/O | 14
81 | COc1ccc(NC(=O)CSc2nc3c(c(=O)n2-c2ccc(F)cc2)SCC3)c(OC)c1 | -0.162
82 | C#CCOCCOCCOCCNc1nc(N2CCN(C(=O)Cn3cc(CCCC[NH3+])nn3)CC2)nc(N2CCN(C(=O)Cn3cc(CC(C)O)nn3)CC2)n1.[Cl-] (stereo not drawn) | -15.9
83 | Cc1nnc(SCCN2C(=O)c3ccccc3C2=O)nc1C | 4.05
84 | O=C1CSC(c2cccnc2)N1Cc1ccc(Cl)cc1Cl (stereo not drawn) | 9.22
85 | O=C(CN(C(=O)CCC(=O)Nc1ccccn1)c1ccc(F)cc1)NCCc1ccccc1 | 19.1
86 | CCOCCc1c(O)nc(SC)[nH]c1=O | 16.8
87 | COCCNC(=O)c1cn(C)c2ccc(S(=O)(=O)N3CCCC3)cc2c1=O | 8.14
88 | COc1cccc(C(C(=O)NC2CCCC2)N(C(=O)c2ccco2)c2cccc(C(C)=O)c2)c1OC (stereo not drawn) | 17.6
89 | COc1ccc(OC)c(Nc2nc(NCCCN(C)C)nc(N)c2[N+](=O)[O-])c1 | 2.22
90 | COc1ccccc1N(CC(=O)N/N=C/c1ccc(SC)cc1)S(C)(=O)=O | 3.73
